From PubChem BioAssay (Tox21)
Records with an inconclusive call do not appear. Calls follow the shape of the dose curve; as a rule, active = well fitted cell-killing curve with a large enough effect in the repeat runs; inconclusive = weak or mixed curves, or effect the other way; inactive = flat fitted curve, though single readings scatter. More than one record can exist for a structure, and the calls need not agree. For part of its entries the source gives two or more results. The other results are left out here. There may be further records. Results that share an entry repeat one measurement across runs, samples, wells, individuals or studies. Brackets tell where a record comes from. A, B and so on number the origins entry by entry.

Test: cAMP Responsive Elements (CRE) small molecule antagonists, cell-based qHTS assay: qHTS cell viability counter screen (AID 2060913); also: nearly all actives have a fitted effect of over 40% in size
Settings: CRE-bla HEK293T viability, CellTiter-Glo luminescence, 5 h; series mostly up to 92.4 µM
Text: (§1) U.S. Tox21 Program National Center for Advancing Translational Sciences [NCATS] Division of Preclinical Innovation [DPI] U.S. Environmental Protection Agency [EPA] National Institutes of Environmental Health Sciences [NIEHS] National Toxicology Program [NTP] U.S. Food and Drug Administration [FDA] Tox21 Assay Overview: CREB (cyclic-AMP Responsive Element Binding Protein) is a cellular transcription factor. It binds to certain DNA sequences called cAMP Responsive Elements (CRE) and regulates the transcription of the genes. […] This cell line can be used to find agonists/antagonists of the cyclic AMP signaling pathway. The activation of the report gene under culture conditions can be detected by fluorescence intensity. This cell line has been used to screen the Tox21 10K compound library to identify agonists that induce oxidative stress. The cytotoxicity of the Tox21 compound library against the CRE-bla cell line was tested in parallel by measuring the cell viability using CellTiter-Glo assay (Promega, Madison, WI) in the same wells.
Tox21 Assay Protocol Summary: CRE-bla Hek 293T cells were suspended in assay medium (DMEM containing 10% dialyzed FBS, 0.1 mM NEAA, 1 mM sodium pyruvate and 25 mM HEPES) and dispensed at 2,000 cells/4 uL /well into 1536-well black wall/clear bottom plates using a Multidrop Combi (ThermoFisher Scientific, Waltham, MA) dispenser. After the assay plates were incubated at 37 C/5% CO2 for 18 hrs, 23 nL of compounds dissolved in DMSO, positive controls or DMSO only was transferred to the assay plate by a pintool workstation (Kalypsys, San Diego, CA), followed by addition of 1 uL of 1.25uM NKH477 (0.25 uM as final concentration) in assay medium using a Flying Reagent Dispenser (Aurora Discovery, San Diego, CA). The plates were incubated at 37 C and 5% CO2 for 3 hrs. Then 1 uL of LiveBLAzer B/G FRET substrate (Invitrogen, Carlsbad, CA) was added to each well using Bioraptr Flying Reagent Dispenser (FRD, Aurora Discovery, San Diego, CA). The plates were incubated at room temperature for 2 h, then fluorescence intensities were measured using an Envision plate reader (PerkinElmer, Shelton, CT) at Excitation 405nm, Emission 460nm and 530nm. The % activity was determined from the ratio of 460nm/530nm. For cell viability readout that measures cytotoxicity, 4 uL /well of CellTiter-Glo reagent was added into the assay plates using Bioraptr FRD. After 30 min incubation at room temperature, the luminescence intensity in the assay plates was measured using a ViewLux (PerkinElmer, Shelton, CT) plate reader.
Potency is read from the fitted curve at half-maximal effect.

| Structure (SMILES) | Potency |
| --- | --- |
| [Cd+2].[Cl-].[Cl-] | inactive [sample A] and active: 32 µM [sample B] |
| C=C(C)[C@H]1Cc2c(ccc3c2O[C@@H]2COc4cc(OC)c(OC)cc4[C@@H]2C3=O)O1 | active: 492 nM [sample A] and inactive [sample B] |
| C[C@]12CCC(=O)C[C@@H]1CC[C@@H]1[C@@H]2CC[C@]2(C)[C@@H](O)CC[C@@H]12 | active: 53.8 µM [sample A] and inactive [sample B] |
| CC(C)c1ccc(OP(=O)(Oc2ccc(C(C)C)cc2)Oc2ccc(C(C)C)cc2)cc1 | active: 48.9 µM [sample A] and inactive [sample B] and active: 68.5 µM [sample C] |
| CCOP(=O)(O)OCC (tested in a mixture with another compound) | inactive [sample A] and active: 27.1 µM [sample B] |
| NC(=S)Nc1ccccc1 | active: 22 µM [sample A] and inactive [sample B] |
| CCCCCCCCCCCC[N+](C)(C)CCOc1ccccc1 | active: 54.5 µM [sample A] and inactive [sample B] |

Test: cAMP Responsive Elements (CRE) small molecule agonists, cell-based qHTS assay: qHTS cell viability counter screen (AID 2060914);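 also: viability read after 3 h of compound exposure; nearly all actives have a fitted effect of over 50% in size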
Settings: CRE-bla HEK293T viability, CellTiter-Glo luminescence, 5 h; series mostly up to 92.4 µM
Text: National Center for Advancing Translational Sciences [NCATS]
Division of Preclinical Innovation [DPI]
U.S. Environmental Protection Agency [EPA]
National Institutes of Environmental Health Sciences [NIEHS]
National Toxicology Program [NTP]
U.S. Food and Drug Administration [FDA]
as §1, with “CREB” for “U.S. Tox21 Program National Center for Advancing Translational Sciences [NCATS] Division of Preclinical Innovation [DPI] U.S. Environmental Protection Agency [EPA] National Institutes of Environmental Health Sciences [NIEHS] National Toxicology Program [NTP] U.S. Food and Drug Administration [FDA] Tox21 Assay Overview: CREB”
Tox21 Assay Protocol Summary:
CRE-bla Hek 293T cells were suspended in assay medium (DMEM containing 10% dialyzed FBS, 0.1 mM NEAA, 1 mM sodium pyruvate and 25 mM HEPES) and dispensed at 2,000 cells/5 uL /well into 1536-well black wall/clear bottom plates using a Multidrop Combi (ThermoFisher Scientific, Waltham, MA) dispenser. After the assay plates were incubated at 37 C/5% CO2 for 18 hrs, 23 nL of compounds dissolved in DMSO, positive controls or DMSO only was transferred to the assay plate by a pintool workstation (Kalypsys, San Diego, CA). After the plates were incubated at 37 C/5% CO2 for 3 hrs, 1 uL of LiveBLAzer B/G FRET substrate (Invitrogen, Carlsbad, CA) was added to each well using Bioraptr Flying Reagent Dispenser (FRD, Aurora Discovery, San Diego, CA). The plates were incubated at room temperature for 2 h, then fluorescence intensities were measured using an Envision plate reader (PerkinElmer, Shelton, CT) at Excitation 405nm, Emission 460nm and 530nm. The % activity was determined from the ratio of 460nm/530nm. For cell viability readout that measures cytotoxicity, 4 uL /well of CellTiter-Glo reagent was added into the assay plates using Bioraptr FRD. After 30 min incubation at room temperature, the luminescence intensity in the assay plates was measured using a ViewLux (PerkinElmer, Shelton, CT) plate reader.

| Structure (SMILES) | Potency |
| --- | --- |
| Nc1nc(N)nc(NC2CC2)n1 | inactive [sample A] and active: 1.19 µM [sample B] |
| CCOP(=O)(O)OCC (tested in a mixture with another compound) | inactive [sample A] and active: 42.9 µM [sample B] |
| O=S1OCC2C(CO1)C1(Cl)C(Cl)=C(Cl)C2(Cl)C1(Cl)Cl (stereo not drawn) | inactive [sample A] and active: 61.1 µM [sample B] |
| Clc1ccc(C(c2ccccc2Cl)C(Cl)(Cl)Cl)cc1 (stereo not drawn) | inactive [sample A] and active: 45.1 µM [sample B] |
| CCC[CH2][Sn]([Cl])([CH2]CCC)[CH2]CCC | active: 3.86 µM [sample A] and inactive [sample B] |
| Clc1ccc(COC(Cn2ccnc2)c2ccc(Cl)cc2Cl)cc1 (stereo not drawn) | inactive [sample A] and active: 68.3 µM [sample B] |
